{"source": "PubChem BioAssay AID504339", "about": "(National Center for Advancing Translational Sciences (NCATS), 2011)", "note": "The whole screen tested about 390,000 compounds, of which about 17,000 (4.4%) were called active. The inconclusive results got no clear call from the source; some entries with a clear call stand among them for comparison. The call rests on the fitted dose curve; in most records, active means well fitted inhibition curve with a large enough effect; inconclusive means small, poorly fitted or top-dose-only effect; inactive means no such curve, though single readings can be large or run the other way. Potencies of inconclusive entries are doubtful fits and often do not repeat. Potency means the concentration at half of the fitted maximal effect; tags describe the fitted curve by direction and shape."}
{"molecular_target": "Lysine-specific demethylase 4A (Homo sapiens) (UniProt O75164)", "sequence (O75164 whole entry, looked up, the tested form may be a part)": "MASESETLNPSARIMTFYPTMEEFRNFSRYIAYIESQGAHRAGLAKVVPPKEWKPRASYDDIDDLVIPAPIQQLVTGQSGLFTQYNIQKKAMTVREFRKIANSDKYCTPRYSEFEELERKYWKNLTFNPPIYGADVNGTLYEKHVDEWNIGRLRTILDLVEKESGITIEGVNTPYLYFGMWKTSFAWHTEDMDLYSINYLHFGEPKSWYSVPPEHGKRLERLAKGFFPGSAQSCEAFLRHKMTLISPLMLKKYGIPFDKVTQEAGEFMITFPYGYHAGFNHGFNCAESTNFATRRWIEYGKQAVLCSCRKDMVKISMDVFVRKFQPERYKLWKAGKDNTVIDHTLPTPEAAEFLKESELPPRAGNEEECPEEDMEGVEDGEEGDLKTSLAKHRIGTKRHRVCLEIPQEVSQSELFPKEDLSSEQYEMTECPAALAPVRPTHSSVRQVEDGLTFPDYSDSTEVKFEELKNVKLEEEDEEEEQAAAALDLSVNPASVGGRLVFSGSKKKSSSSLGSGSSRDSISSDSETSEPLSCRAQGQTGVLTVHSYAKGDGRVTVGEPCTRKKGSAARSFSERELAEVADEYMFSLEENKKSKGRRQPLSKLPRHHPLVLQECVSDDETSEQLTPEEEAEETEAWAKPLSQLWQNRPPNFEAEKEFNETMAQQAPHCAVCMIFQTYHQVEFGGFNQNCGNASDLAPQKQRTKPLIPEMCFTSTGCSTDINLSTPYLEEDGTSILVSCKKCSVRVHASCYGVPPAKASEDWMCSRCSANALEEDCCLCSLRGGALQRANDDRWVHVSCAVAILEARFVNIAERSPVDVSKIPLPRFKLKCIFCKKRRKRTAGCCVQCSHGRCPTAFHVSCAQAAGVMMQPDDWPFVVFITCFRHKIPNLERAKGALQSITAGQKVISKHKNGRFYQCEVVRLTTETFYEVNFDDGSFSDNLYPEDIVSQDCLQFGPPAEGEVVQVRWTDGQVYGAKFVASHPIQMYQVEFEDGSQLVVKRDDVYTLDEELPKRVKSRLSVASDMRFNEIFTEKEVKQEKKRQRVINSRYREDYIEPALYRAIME", "test": "qHTS Assay for Inhibitors of JMJD2A-Tudor Domain; further: nearly all actives have a fitted effect of over 50% in size", "conditions": "AlphaScreen JMJD2A-Tudor / H3K4me3 peptide binding; series mostly up to 114 µM"}
{"compound": "Cc1ccc(C(=O)N/C(=C\\c2ccc(Br)cc2)c2nc(=S)[nH][nH]2)cc1", "Potency": "active: 44.7 µM"}
{"compound": "CCOc1cc(C2C(C(=O)c3ccco3)=C(O)C(=O)N2CCc2ccccc2)ccc1O", "note": "(stereo not given)", "Potency": "inconclusive: 89.1 µM [inhibitor, single point]"}
{"compound": "COc1ccc(C(=O)NCC(=O)OCC(=O)N2N=C(c3ccc(Cl)cc3)CC2c2ccco2)cc1OC", "note": "(stereo not given)", "Potency": "inactive"}
{"compound": "COc1ccc(-n2c(SCC(=O)NCc3ccco3)nnc2-c2c[nH]c3ccccc23)cc1", "Potency": "inconclusive: 79.4 µM [inhibitor, partial curve]"}
{"compound": "COC(=O)C1=C(C)N(Cc2cccnc2)C(=O)/C1=C\\c1sccc1C", "Potency": "active: 44.7 µM"}
{"compound": "CC(C)(C)OC(=O)n1cccc1/C=C1\\c2ccccc2C(=O)N1c1ccccc1", "Potency": "active: 63.1 µM"}
{"compound": "S=c1[nH]ccn1Cc1ccccc1", "Potency": "active: 14.1 µM"}
{"compound": "Cc1ccc(SCCC(=O)OCC(=O)Nc2ncc(Cl)cc2Cl)cc1", "Potency": "inconclusive: 44.7 µM [inhibitor, full curve, poor fit]"}
{"compound": "COCCn1c(C)cc(C(=O)COC(=O)c2ccc(N3CCCC3=O)cc2)c1C", "Potency": "inconclusive: 56.2 µM [inhibitor, single point]"}
{"compound": "COCCN1C(=O)C(=O)/C(=C(/O)c2ccc(S(=O)(=O)N3CCOCC3)cc2)C1c1cccc(O)c1", "note": "(stereo not given)", "Potency": "inactive"}
{"compound": "COc1ccc(NS(=O)(=O)c2ccc3[nH]c(=O)ccc3c2)cc1OC", "Potency": "inconclusive: 28.2 µM [inhibitor, partial curve]"}
{"compound": "FC(F)(F)c1cnc(-c2cnc(-c3cccnc3)nc2)c(Cl)c1", "Potency": "inconclusive: 25.1 µM [inhibitor, single point]"}
{"compound": "Cc1ccc(NC(=O)CSC2=NCCN2)cc1", "Potency": "inconclusive: 39.8 µM [inhibitor, single point]"}
{"compound": "O=C(c1ccccc1)c1cccc2ccccc12", "Potency": "inactive"}
{"compound": "CCOc1cc(CNCc2ccc3c(c2)OCO3)ccc1OC", "Potency": "inactive"}
{"compound": "O=C(O)c1ccc(N/N=C/c2cn(Cc3ccccc3F)c3ccccc23)cc1", "Potency": "active: 56.2 µM"}
{"compound": "COc1ccc([N+](=O)[O-])cc1/C=N/NC(=O)CNC(=O)c1cccc(F)c1", "Potency": "inconclusive: 100 µM [inhibitor, single point]"}
{"compound": "CCC1CCC(N2CCN(c3ccccc3F)CC2)CC1", "note": "(stereo not given)", "Potency": "inconclusive: 20 µM [inhibitor, full curve, poor fit]"}
{"compound": "Cc1ccc2nc(N(CCCN(C)C)C(=O)c3ccc4ncsc4c3)sc2c1", "Potency": "active: 39.8 µM"}
{"compound": "O=C(N/N=C/c1c(Cl)cccc1Cl)c1cccc(F)c1", "Potency": "inactive"}
{"compound": "OC(CNCc1ccccc1)Cn1ccc2ccccc21", "note": "(stereo not given)", "Potency": "active: 22.4 µM"}
{"compound": "Cn1c(=S)c2[nH]c(SCC3CCCO3)nc2n(C)c1=O", "note": "(stereo not given)", "Potency": "active: 4.47 µM"}
{"compound": "CCC1=C(OC(=O)N(CC)CC)N2C(=O)OC(=NCCc3c[nH]c4ccccc34)[C@]2(C)[C@H]2C1=CC[C@H]1C(=O)N(CC(=O)OC)C(=O)[C@H]12", "Potency": "inconclusive: 25.1 µM [inhibitor, full curve, poor fit]"}
{"compound": "CCC(=O)Nc1nnc(Sc2ccc(N(C)C)cc2)s1", "Potency": "inactive"}
{"compound": "Cc1ccc(NS(=O)(=O)c2ccccc2)c(C)c1", "Potency": "active: 50.1 µM"}
{"compound": "Cc1cccc(C)c1OCc1nnc(SCC(=O)Nc2ccc(N3CCOCC3)cc2)o1", "Potency": "inactive"}
{"compound": "C=C1CCC[C@]2(C)C[C@H]3OC(=O)C(CNCCN(CC)CC)[C@H]3CC12", "note": "(stereo not given in full)", "Potency": "active: 1.78 µM"}
{"compound": "Cc1onc(-c2ccccc2)c1C(=O)N/N=C/c1c[nH]c2ccccc12", "Potency": "inconclusive: 100 µM [inhibitor, partial curve]"}
{"compound": "C=CCn1c(CCSCc2ccccc2)n[nH]c1=S", "Potency": "active: 15.8 µM"}
{"compound": "Cc1ccc(-n2[nH]c(C)c(C=Nc3ccc(S(=O)(=O)Nc4nc(C)cc(C)n4)cc3)c2=O)c(C)c1", "Potency": "inconclusive: 39.8 µM [inhibitor, partial curve]"}
{"compound": "O=S(=O)(c1ccccc1)c1nc(-c2ccccc2)oc1N1CCCCC1", "Potency": "inconclusive: 63.1 µM [inhibitor, partial curve, poor fit]"}
{"compound": "COc1ccccc1Nc1c2c(nc3ccc(NC(=O)c4ccccc4F)cc13)CCCC2", "Potency": "inconclusive: 12.6 µM [inhibitor, full curve]"}
{"compound": "C/C(=N\\NC(=S)NCc1ccccc1)c1ccc2c(c1)OCCO2", "Potency": "inconclusive: 50.1 µM [inhibitor, partial curve]"}
{"compound": "CCOC(=O)c1c(C)[nH]c(C2=NNC(=Nc3ccccc3)SC2)c1C", "Potency": "inconclusive: 39.8 µM [inhibitor, partial curve]"}
{"compound": "c1ccc2c(c1)oc1c(Nc3ccc4c(c3)OCCO4)ncnc12", "Potency": "inconclusive: 56.2 µM [inhibitor, partial curve]"}
{"compound": "CCCCSc1nnc(CSc2nc3nc(C)cc(C)n3n2)o1", "Potency": "inactive"}
{"compound": "Cc1ccc(C)c(N2CCN(CCCNC(=O)c3cnn(-c4ccccc4)c3C3CCN(C(=O)OC(C)(C)C)CC3)CC2)c1", "Potency": "inconclusive: 44.7 µM [inhibitor, full curve]"}
{"compound": "C/C(=N/NC(=O)C1CCN(S(=O)(=O)c2ccc(C)cc2)CC1)c1cccc([N+](=O)[O-])c1", "Potency": "inconclusive: 14.1 µM [inhibitor, single point]"}
{"compound": "C[C@H](CO)N1C[C@H](C)[C@H](CN(C)Cc2ccc(-c3ccccc3)cc2)Oc2ccc(NS(=O)(=O)c3ccccc3)cc2CC1=O", "Potency": "inconclusive: 35.5 µM [inhibitor, partial curve]"}
{"compound": "CCOC(=O)c1c(-c2ccc(OC)cc2)csc1NC(=O)CSc1nnc(C)c(=O)[nH]1", "Potency": "inactive"}
{"compound": "Cc1cc(C)cc(NC(=O)c2ccc(N3C(=O)C4CCCCC4C3=O)cc2)c1", "note": "(stereo not given)", "Potency": "inactive"}
{"compound": "NC(CSC12CC3CC(CC(C3)C1)C2)C(=O)O", "note": "(stereo not given)", "Potency": "inconclusive: 89.1 µM [inhibitor, single point]"}
{"compound": "O=[N+]([O-])c1cc(F)c(N2CCOCC2)cc1N1CCCCC1", "Potency": "inconclusive: 31.6 µM [inhibitor, full curve]"}
{"compound": "COC(=O)CCCCCn1c(-c2ccccc2)cn2c3c(=O)n(C)c(=O)n(C)c3nc12", "Potency": "inactive"}
{"compound": "Cc1c(C)n(CCc2ccccc2)c2ncnc(NN)c12", "Potency": "inconclusive: 50.1 µM [inhibitor, partial curve]"}
